pIC50: −log10 of the molar value. A lower IC50 marks a more sensitive line; where the fit passes the top or lowest dose, that dose stands as a limit. AUC is the area under the same curve over the 256-fold range up to the top dose, as a fraction; it is 1 without any effect and falls as sensitivity rises. For some of these results: Where the top dose is marked as inferred, it is not printed in the source and was worked back from the curve model.
Columns and labels:
Experiment in all cases: Viability of human cancer cell lines after 72 h of drug (GDSC screen)
HG-6-64-1 = compound: CCN1CCN(Cc2ccc(NC(=O)c3ccc(C)c(/C=C/c4cnc5[nH]ccc5c4OC)c3)cc2C(F)(F)F)CC1 [HG-6-64-1]; settings: top dose 5.12 µM; top dose inferred
Description: (§1)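 Human cancer cell lines in 384-well plates, medium with 10% serum, drug for 72 h over a 256-fold dose range (nine 2-fold or five 4-fold steps up to the top dose). Adherent lines were fixed and stained with the nucleic acid dye Syto60, suspension lines read with resazurin; signal relative to control wells, capped at 0 and 100%. One two-parameter sigmoid per drug and line, fitted in a mixed model over all curves with the slope shared within a line.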

AV-951 = compound: COc1cc2nccc(Oc3ccc(NC(=O)Nc4cc(C)on4)c(Cl)c3)c2cc1OC [AV-951]; settings: top dose 0.128 µM; top dose inferred
Description: as §1

KIN001-244 = compound: O=C(NC(COc1ccc2[nH]c(=O)[nH]c2c1)c1ccccc1)c1cccn(Cc2ccc(F)c(F)c2)c1=O [KIN001-244]; settings: top dose 20 µM; top dose inferred
Description: as §1

MS-275 = compound: Nc1ccccc1NC(=O)c1ccc(CNC(=O)OCc2cccnc2)cc1 [MS-275]; settings: top dose 5 µM; top dose inferred
Description: as §1

Trametinib = compound: CC(=O)Nc1cccc(-n2c(=O)n(C3CC3)c(=O)c3c(Nc4ccc(I)cc4F)n(C)c(=O)c(C)c32)c1 [Trametinib]; settings: top dose 1 µM
Description: as §1

I-BET-762 = compound: CCNC(=O)C[C@@H]1N=C(c2ccc(Cl)cc2)c2cc(OC)ccc2-n2c(C)nnc21 [I-BET-762]; settings: top dose 20 µM; top dose inferred
Description: as §1

PF-4708671 = compound: CCc1cncnc1N1CCN(Cc2nc3ccc(C(F)(F)F)cc3[nH]2)CC1 [PF-4708671]; settings: top dose 10 µM; top dose inferred
Description: as §1

Cell Line | AUC (HG-6-64-1) | pIC50 (HG-6-64-1) | AUC (AV-951) | pIC50 (AV-951) | AUC (KIN001-244) | pIC50 (KIN001-244) | AUC (MS-275) | pIC50 (MS-275) | AUC (Trametinib) | pIC50 (Trametinib) | AUC (I-BET-762) | pIC50 (I-BET-762) | AUC (PF-4708671) | pIC50 (PF-4708671)
NCI-H1436 (small cell lung carcinoma, suspension) | 0.849 | 5.33 | 0.983 | < 6.89 | 0.91 | < 4.70 | 0.861 | < 5.30 | 0.968 | < 6.00 | 0.983 | < 4.70 | 0.966 | < 5.00
NCI-H1581 (large cell lung carcinoma, semi-adherent) | 0.896 | < 5.29 | 0.98 | < 6.89 | 0.913 | < 4.70 | 0.915 | < 5.30 | 0.9 | < 6.00 | 0.989 | < 4.70 | 0.98 | < 5.00
NCI-H1648 (lung adenocarcinoma, adherent) | 0.893 | < 5.29 | 0.983 | < 6.89 | 0.9 | < 4.70 | 0.84 | 5.43 | 0.891 | < 6.00 | 0.949 | < 4.70 | 0.919 | < 5.00
NCI-H1666 (lung adenocarcinoma, semi-adherent) | 0.976 | < 5.29 | 0.987 | < 6.89 | 0.973 | < 4.70 | 0.932 | < 5.30 | 0.166 | 8.28 | 0.93 | < 4.70 | 0.974 | < 5.00
NCI-H1694 (small cell lung carcinoma, suspension) | 0.977 | < 5.29 | 0.983 | < 6.89 | 0.883 | < 4.70 | 0.889 | < 5.30 | 0.986 | < 6.00 | 0.908 | < 4.70 | 0.983 | < 5.00
NCI-H1770 (non-small cell lung carcinoma, suspension) | 0.776 | 5.75 | 0.992 | < 6.89 | 0.937 | < 4.70 | 0.947 | < 5.30 | 0.981 | < 6.00 | 0.933 | < 4.70 | 0.977 | < 5.00
NCI-H1836 (small cell lung carcinoma, suspension) | 0.893 | < 5.29 | 0.988 | < 6.89 | 0.985 | < 4.70 | 0.889 | < 5.30 | 0.968 | < 6.00 | 0.904 | < 4.70 | 0.988 | < 5.00
NCI-H1838 (lung adenocarcinoma, adherent) | 0.961 | < 5.29 | 0.986 | < 6.89 | 0.948 | < 4.70 | 0.982 | < 5.30 | 0.892 | < 6.00 | 0.978 | < 4.70 | 0.982 | < 5.00
NCI-H1869 (lung squamous cell carcinoma, adherent) | 0.879 | < 5.29 | 0.985 | < 6.89 | 0.881 | < 4.70 | 0.797 | 5.57 | 0.668 | 6.71 | 0.96 | < 4.70 | 0.977 | < 5.00
NCI-H1876 (small cell lung carcinoma, adherent) | 0.987 | < 5.29 | 0.987 | < 6.89 | 0.939 | < 4.70 | 0.668 | 6.03 | 0.978 | < 6.00 | 0.879 | < 4.70 | 0.912 | < 5.00
NCI-H1975 (lung adenocarcinoma, adherent) | 0.526 | 6.42 | 0.975 | < 6.89 | 0.917 | < 4.70 | 0.377 | 6.87 | 0.382 | 7.55 | 0.845 | 4.75 | 0.968 | < 5.00
NCI-H2081 (small cell lung carcinoma, suspension) | 0.965 | < 5.29 | 0.989 | < 6.89 | 0.93 | < 4.70 | 0.919 | < 5.30 | 0.985 | < 6.00 | 0.978 | < 4.70 | 0.931 | < 5.00
NCI-H2135 (non-small cell lung carcinoma, adherent) | 0.948 | < 5.29 | 0.99 | < 6.89 | 0.783 | 5.09 | 0.842 | 5.47 | 0.99 | < 6.00 | 0.589 | 5.66 | 0.863 | 5.08
NCI-H2141 (small cell lung carcinoma, suspension) | 0.985 | < 5.29 | 0.986 | < 6.89 | 0.946 | < 4.70 | 0.856 | 5.41 | 0.99 | < 6.00 | 0.955 | < 4.70 | 0.988 | < 5.00
NCI-H2227 (small cell lung carcinoma, semi-adherent) | 0.97 | < 5.29 | 0.978 | < 6.89 | 0.865 | < 4.70 | 0.823 | 5.46 | 0.906 | < 6.00 | 0.604 | 5.60 | 0.985 | < 5.00
NCI-SNU-1 (stomach, suspension) | 0.696 | 5.94 | 0.981 | < 6.89 | 0.824 | 4.91 | 0.903 | < 5.30 | 0.911 | < 6.00 | 0.795 | 5.02 | 0.922 | < 5.00
NCI-SNU-5 (stomach, suspension) | 0.988 | < 5.29 | 0.989 | < 6.89 | 0.937 | < 4.70 | 0.844 | 5.44 | 0.76 | 6.45 | 0.989 | < 4.70 | 0.987 | < 5.00
NCI-SNU-16 (stomach, suspension) | 0.949 | < 5.29 | 0.991 | < 6.89 | 0.974 | < 4.70 | 0.867 | 5.44 | 0.954 | < 6.00 | 0.991 | < 4.70 | 0.911 | < 5.00

Cell Line | AUC (HG-6-64-1) | pIC50 (HG-6-64-1) | AUC (AV-951) | pIC50 (AV-951) | AUC (KIN001-244) | pIC50 (KIN001-244) | AUC (MS-275) | pIC50 (MS-275) | AUC (Trametinib) | pIC50 (Trametinib) | AUC (I-BET-762) | pIC50 (I-BET-762) | AUC (PF-4708671) | pIC50 (PF-4708671)
NKM-1 (acute myeloid leukaemia, suspension) | 0.287 | 7.11 | 0.923 | < 6.89 | 0.428 | 6.10 | 0.385 | 6.83 | 0.441 | 7.37 | 0.611 | 5.59 | 0.982 | < 5.00
NMC-G1 (glioma, adherent) | 0.698 | 5.88 | 0.98 | < 6.89 | 0.844 | 4.71 | 0.545 | 6.37 | 0.689 | 6.62 | 0.963 | < 4.70 | 0.962 | < 5.00
NTERA-2 cl.D1 (testis, adherent) | 0.389 | 6.80 | 0.982 | < 6.89 | 0.919 | < 4.70 | 0.445 | 6.65 | 0.739 | 6.52 | 0.803 | 5.01 | 0.967 | < 5.00
NU-DUL-1 (B-cell lymphoma, suspension) | 0.439 | 6.65 | 0.99 | < 6.89 | 0.499 | 5.91 | 0.492 | 6.52 | 0.992 | < 6.00 | 0.522 | 5.85 | 0.991 | < 5.00
OCI-AML2 (acute myeloid leukaemia, suspension) | 0.895 | 5.46 | 0.994 | < 6.89 | 0.333 | 6.31 | 0.719 | 5.97 | 0.011 | > 8.41 | 0.42 | 6.10 | 0.973 | < 5.00
OCI-AML5 (acute myeloid leukaemia, suspension) | 0.649 | 6.10 | 0.963 | < 6.89 | 0.795 | 5.08 | 0.567 | 6.33 | 0.593 | 6.96 | 0.508 | 5.88 | 0.989 | < 5.00
OCI-LY-19 (B-cell lymphoma, suspension) | 0.475 | 6.56 | 0.982 | < 6.89 | 0.522 | 5.85 | 0.688 | 6.00 | 0.789 | 6.39 | 0.602 | 5.63 | 0.968 | < 5.00
OCI-M1 (acute myeloid leukaemia, suspension) | 0.886 | 5.47 | 0.976 | < 6.89 | 0.722 | 5.35 | 0.657 | 6.12 | 0.947 | < 6.00 | 0.341 | 6.29 | 0.951 | < 5.00
OCUB-M (breast, adherent) | 0.845 | 5.53 | 0.987 | < 6.89 | 0.8 | 5.09 | 0.724 |  | 0.982 | < 6.00 | 0.853 | 4.91 | 0.849 | 5.22
OMC-1 (cervix, adherent) | 0.811 | 5.54 | 0.987 | < 6.89 | 0.899 | < 4.70 | 0.963 | < 5.30 | 0.794 | 6.32 | 0.951 | < 4.70 | 0.971 | < 5.00
ONS-76 (medulloblastoma, adherent) | 0.53 | 6.41 | 0.964 | < 6.89 | 0.899 | < 4.70 | 0.561 | 6.33 | 0.095 | > 8.41 | 0.913 | < 4.70 | 0.939 | < 5.00
OPM-2 (myeloma, suspension) | 0.73 | 5.90 | 0.993 | < 6.89 | 0.83 | 5.02 | 0.534 | 6.42 | 0.987 | < 6.00 | 0.318 | 6.36 | 0.943 | < 5.00
OS-RC-2 (kidney, adherent) | 0.612 | 6.13 | 0.974 | < 6.89 | 0.861 | < 4.70 | 0.639 | 6.05 | 0.841 | < 6.00 | 0.976 | < 4.70 | 0.955 | < 5.00
OVCAR-4 (ovary, adherent) | 0.501 | 6.49 | 0.971 | < 6.89 | 0.907 | < 4.70 | 0.603 | 6.16 | 0.448 | 7.37 | 0.915 | < 4.70 | 0.919 | < 5.00
P30-OHK (lymphoblastic leukaemia, suspension) | 0.552 | 6.36 | 0.98 | < 6.89 | 0.302 | 6.41 | 0.929 | < 5.30 | 0.974 | < 6.00 | 0.385 | 6.19 | 0.983 | < 5.00
P32-ISH (Burkitt lymphoma, suspension) | 0.448 | 6.62 | 0.983 | < 6.89 | 0.864 | 4.97 | 0.874 | 5.54 | 0.993 | < 6.00 | 0.415 | 6.11 | 0.993 | < 5.00
PF-382 (T-cell lymphoblastic leukaemia, suspension) | 0.539 | 6.39 | 0.982 | < 6.89 | 0.716 | 5.33 | 0.709 |  | 0.99 | < 6.00 | 0.535 | 5.82 | 0.975 | < 5.00
PL-21 (acute myeloid leukaemia, suspension) | 0.819 | 5.45 | 0.98 | < 6.89 | 0.593 | 5.63 | 0.709 | 5.87 | 0.807 | 6.21 | 0.65 | 5.45 | 0.958 | < 5.00

— the supplement of paper PMC4967469
